# Assay results as given in paper PMC6919601, “Identification of Plasmodium dipeptidyl aminopeptidase allosteric inhibitors by high throughput screening” (PLoS ONE, 2019).
# Values joined by “and” are separate entries in the source; they are usually repeats but may differ in a detail not shown here. Identical values can stand only once. Out of some 110,000 compounds screened, about 230 (0.21%) showed an effect of 50% or more. Some of the results follow.
# Biological target: DPAP1 (Plasmodium falciparum, UniProt Q8IIJ9)
# Assay: primary screen, percent inhibition; read by cleavage of a fluorogenic dipeptide substrate; higher = more effect of the substance
# Parameters: species or system P. falciparum D10 trophozoite lysates; single well
# 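Note: 30 min substrate incubation versus DMSO and 10 µM JCP410 controls.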
# Chain of DPAP1 (Q8IIJ9 whole entry, looked up): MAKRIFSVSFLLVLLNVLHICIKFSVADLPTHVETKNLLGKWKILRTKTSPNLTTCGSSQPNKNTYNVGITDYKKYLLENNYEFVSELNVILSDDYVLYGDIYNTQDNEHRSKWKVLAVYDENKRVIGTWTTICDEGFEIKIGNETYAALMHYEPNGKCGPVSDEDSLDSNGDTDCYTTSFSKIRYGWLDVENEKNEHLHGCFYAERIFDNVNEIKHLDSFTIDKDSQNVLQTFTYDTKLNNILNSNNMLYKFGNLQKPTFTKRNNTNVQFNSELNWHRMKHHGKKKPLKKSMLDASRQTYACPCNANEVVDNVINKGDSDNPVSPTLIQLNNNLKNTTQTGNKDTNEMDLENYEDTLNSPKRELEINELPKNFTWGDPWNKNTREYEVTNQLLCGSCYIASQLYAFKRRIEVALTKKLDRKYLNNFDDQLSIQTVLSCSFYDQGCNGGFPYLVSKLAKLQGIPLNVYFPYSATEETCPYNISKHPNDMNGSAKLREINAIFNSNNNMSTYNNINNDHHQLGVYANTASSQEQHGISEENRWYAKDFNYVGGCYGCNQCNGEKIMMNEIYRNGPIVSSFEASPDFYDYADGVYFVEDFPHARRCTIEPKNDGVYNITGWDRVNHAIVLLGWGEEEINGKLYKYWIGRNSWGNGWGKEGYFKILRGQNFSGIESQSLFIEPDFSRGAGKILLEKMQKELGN
row,SMILES,% Inhibition @ 10 uM
1,COCCNC(=O)Cn1c(=O)n(CCCC(=O)NCc2ccco2)c(=O)c2sccc21,-4.43%
2,CC[C@H](NC(=O)C(Cc1nccs1)NC(=O)c1ccc(-c2ccccc2Cl)cc1)C(=O)c1nc2ccccc2o1 (stereo partly shown),-0.207%
3,C/C=C/Cn1c(N2CCCCCC2)nc2c1c(=O)[nH]c(=O)n2C,-2.84%
4,O=C(COc1ccc2ccccc2c1)Nc1nc(-c2ccccc2)cs1,-2.07%
5,C1=C(N2CCCC2)Cc2ccccc21,0.317%
6,CCOC(=O)c1cnc2c(OC)cccc2c1N1CCN(c2ccccn2)CC1,-2.4%
7,Cc1ccc(OCC(=O)Nc2sc3c(c2C(N)=O)CCCC3)cc1,-1.49%
8,Fc1ccc(CN2CCN(c3cccc(Cl)c3)CC2)cc1F,-0.127%
9,COc1ccc(OC)c(C2=NOC(C(=O)N3CC4(C)CC3CC(C)(C)C4)C2)c1 (stereo not shown),1.24%
10,CCOc1ccc(C2CC(=O)N3C(=C2C#N)SCC3(O)c2ccc(OCC)cc2)cc1 (stereo not shown),-0.0235%
11,C=CCSc1nc(N)c(C#N)cc1C#N,-0.828%
12,CCOC(=O)c1c(NC(=O)c2cccs2)sc2c1CCN(C(=O)OCC)C2,2.8%
13,CC(C)(C)C(=O)/C(=C/c1ccc(Cl)cc1)n1cncn1,-3.49%
14,COc1cc(C(=O)Nc2ccc3nn(-c4ccc(C)cc4)nc3c2)cc(OC)c1OC,-7.25%
15,COc1ccc(-c2cc(C(=O)NCC(C)C)c3ccccc3n2)cc1,-2.46%
16,O=C(O)C1Cc2c([nH]c3ccccc23)CN1 (stereo not shown),4.54% and -2.88%
17,Oc1ccccc1-c1nc2c3ccccc3nc(S)n2n1,7.7%
18,COc1cccc(N(CC(=O)NC2CCCCC2)S(=O)(=O)c2ccc(C)cc2)c1,5.54%
19,CO/C(O)=C1\C(C)=NC2=C(C(=O)CC(c3cccs3)C2)C1c1ccc2c(c1)OCO2 (stereo not shown),2.26%
20,O=C(NCc1ccccc1)C(c1ccc(F)cc1)N(Cc1ccco1)C(=O)Cn1nnc2ccccc21 (stereo not shown),-8.69%
21,OC1=C2C(=Nc3ccccc3NC2c2ccccc2F)CC(c2cccs2)C1 (stereo not shown),2.36%
22,COc1cc(OC)cc(C2NCCc3c2[nH]c2ccccc32)c1 (stereo not shown),1.26%
23,COc1cc(C(=O)Nc2ccc3c(c2)C(=O)N(C)C3=O)ccc1OCc1ccc(Cl)cc1,-1.88%
24,O=C1CCCC2=C1C(NC(=O)C1CC1)(C(F)(F)F)C(=O)N2Cc1ccccc1 (stereo not shown),1.91%
25,Cc1cc(NCCCn2ccnc2)n2c(nc3ccccc32)c1C#N,-1.08%

row,SMILES,% Inhibition @ 10 uM
1,Cc1ccc(/C=C(/NC(=O)c2ccc(C)cc2)C(=O)N2CCOCC2)cc1,-6.27%
2,COc1ccc(CCn2c(=O)c3cccnc3n(Cc3ccc(C#N)cc3)c2=O)cc1OC,-5.27%
3,CC(C)OCc1nc(O)c2c(n1)-c1ccccc1CC21CCCCC1,6.39%
4,CCCCCc1ccc(-c2ccc(OC(F)F)cc2)nc1,1.4%
5,O=C(CN1C(=O)c2ccccc2C1=O)NCc1cc([N+](=O)[O-])ccc1O,-1.29%
6,N#CC1=C(N)Oc2[nH]nc(-c3ccc(F)cc3)c2C12C(=O)Nc1ccccc12 (stereo not shown),-1.06%
7,Fc1ccc(Cn2c(N3CCOCC3)nc3ccccc32)cc1,-5.53%
8,CCCO/C(O)=C1\C(C)=NC2=C(C(=O)CC(C)(C)C2)C1c1ccccc1OCC (stereo not shown),0.736%
9,CCOc1cccc2c1OC1(CCCCC1)N1N=C(c3ccccc3)CC21 (stereo not shown),-5.4%
10,CCc1nnc(NC(=O)c2cc3c(=O)oc4ccc(C)cc4c3s2)s1,-3.68%
11,Cn1c(=O)cc(NCCc2ccccc2)[nH]c1=O,8.91%
12,COc1cccc(-c2nc3nc(C)c(CCC(=O)NCC4CCCO4)c(C)n3n2)c1 (stereo not shown),-8.02%
13,O=C(O)CCC(=O)/N=C1\SC2CS(=O)(=O)CC2N1Cc1ccccc1 (stereo not shown),-2.92%
14,COc1ccc(NC(=O)c2ccc([N+](=O)[O-])cc2)cc1OC,-2.78%
15,Cc1ccc(OCC(=O)Nc2cc(C)ccc2C)c(C)c1,-4.15%
16,CCCCOc1ccccc1C1C2=C(O)CCCC2=NC(C)=C1C(=O)Nc1ccccc1OC (stereo not shown),-0.99%
17,CCn1cc(C(=O)OCC(=O)c2ccc(C)cc2)c(=O)c2ccc(C)nc21,1.84%
18,COCc1c(C)cc(C)c(/C=N/O)c1C,3.42%
19,COC(=O)C1=C(N)Oc2c(oc(CO)cc2=O)C1c1ccc(C(=O)OC)cc1 (stereo not shown),4.97%
20,Cc1cccc(-n2nc3c(c2NC(=O)c2ccco2)CS(=O)(=O)C3)c1C,2.21%
21,CC(C)CNS(=O)(=O)c1ccc(CCC(=O)NC(C)C)cc1,1.27%
22,CCC(C)NC(=O)Cn1cc2c(n1)-c1c(oc(C(=O)N3CCOCC3)c1C)CC2 (stereo not shown),0.616%
23,CC1(C)C(c2ccco2)=[N+]([O-])C(C)(C)N1O,-1.6%
24,Oc1ccccc1CN1CCCCCCC1,-1.21%
25,CC(=O)c1ccc(NC(=O)c2scc3c2CCCC3)cc1,3.06%

row,SMILES,% Inhibition @ 10 uM
1,CCCNC(=O)C(C)n1nc(C)n2c(cc3sccc32)c1=O (stereo not shown),-11.1%
2,CC(C)CC(NC(=O)c1ccc(N(C)C)cc1)C(=O)NCC#N (stereo not shown),-7.58%
3,CCN1CCCC1CNC(=O)c1ccc2c(Cl)c3c(nc2c1)CCCC3 (stereo not shown),-2.45%
4,CCN(CC)C(=O)C1CCCN(C2CCN(Cc3ccccc3)CC2)C1 (stereo not shown),1.57%
5,COc1ccc(Cl)cc1C(=O)Nc1c2c(nn1-c1ccc(C)cc1)CS(=O)(=O)C2,-1.75%
6,Cc1ccc(NC(=O)c2cc(F)c(Cl)nc2Cl)cc1C,1.93%
7,COc1ccc(N(CC(=O)Nc2cccc(Cl)c2C)S(C)(=O)=O)c(OC)c1,-5.23%
8,COc1ccc(Cc2c(C)nc3ccc(OC)cc3c2Cl)cc1,-0.158%
9,COc1ccc(NC(=O)c2c(NC(=O)CNCc3ccccc3)sc3c2CCC3)cc1,-14.3%
10,CCOc1ccccc1/C=c1\sc2nc(-c3ccccc3C)nn2c1=O,0.561%
11,COc1ccccc1/N=C1\SC(C(=O)Nc2ccccc2)CC(=O)N1C (stereo not shown),5.31%
12,COc1ccc(C2CC(c3ccc(OC(F)F)cc3)n3nnnc3N2)cc1 (stereo not shown),0.0842%
13,COc1ccc(-c2nc3scc(CCNC(=O)c4ccc(C(C)(C)C)cc4)n3n2)cc1,7.61%
14,Cc1cc([N+](=O)[O-])ccc1NC(=O)C(c1ccccc1)c1ccccc1,0.98%
15,COc1ccc(-c2c3c(nn2-c2ccccc2)CC(C)(C)CC3=O)cc1,0.275%
16,CCC(C)c1ccc(C(=O)N[C@@H](CC(C)C)C(=O)NCC#N)cc1 (stereo partly shown),-6.46%
17,Cn1c2c(c(=O)n(C)c1=O)C1(C(=O)Nc3ccc(Br)cc31)C(C#N)=C(N)O2 (stereo not shown),1.64%
18,OC1=C2Sc3ccccc3N=C2CCC1,3.25%
19,N#CCNC(=O)[C@H](CC1CCCCC1)NC(=O)C1=CCCCC1,-1.83%
20,Cc1ccc(OCCCCCCN2CCNCC2)c(Br)c1,4.57%
21,Cc1ccc(C(=O)NC2CCCCCC2)o1,-1.63%
22,Cc1ccc(N2CC(C(=O)O)CC2=O)cc1C (stereo not shown),5.77%
23,CC(=O)c1c(C)oc2c1cc(NS(=O)(=O)c1ccccc1)c1ccccc12,-2.55%
24,CCCn1c(SCC(C)C)nc2c1c(=O)[nH]c(=O)n2C,-6.7%
25,CCOC(=O)N1CCN(Cc2nc3c(c(=O)[nH]c(=O)n3C)n2CCCc2ccccc2)CC1,-2.92%

row,SMILES,% Inhibition @ 10 uM
1,COc1cccc(Cn2c(=O)n(C(C)C)c(=O)c3oc4ccccc4c32)c1,1.91%
2,CC(C)CC(=O)Nc1nn2c(COc3ccccc3)nnc2s1,16.2%
3,Cc1ccc(-n2cc(C(C)(C)O)nn2)cc1,-4.04%
4,CN1CCC(c2ccc3c(c2)CSc2sccc2C3=O)CC1,-0.519%
5,COC(=O)C1=C(C)NC(=O)CC1c1ccccc1OCc1ccccc1 (stereo not shown),-4.77%
6,CCOC(=O)C1=C(CN2CCN(C)CC2)NC(=O)NC1c1cccc(OC)c1OC (stereo not shown),3.75%
7,CC(=O)c1cccc(NS(=O)(=O)c2c(Cl)cccc2Cl)c1,0.161%
8,O=[N+]([O-])c1ccc(-c2nnc(-c3ccc([N+](=O)[O-])cc3)o2)cc1,-4.01%
9,COc1ccc(CNC(=O)C(C)n2nc(C)c3c(C)n(-c4ccc(C)cc4)nc3c2=O)cc1OC (stereo not shown),-0.307%
10,COc1ccc2[nH]c3c(=O)n(CCCCCC(=O)N4CCC(C(N)=O)CC4)c(=S)[nH]c3c2c1,12.8%
11,Cc1ccccc1C1CC(=O)NC2=C1C(=O)CC(c1ccc(F)cc1)C2 (stereo not shown),-2.24%
12,CCc1ccc(C(=O)N[C@@H](CC(C)C)C(=O)NCC#N)cc1,1.71%
13,Cc1nc(C(=O)Nc2ccccc2F)c(C(=O)NC(C)C)nc1C,0.35%
14,CC(C)C(NS(=O)(=O)c1cccc2nsnc12)C(=O)N1CCCCC1 (stereo not shown),-0.465%
15,CC(=O)CC(c1ccc(O)cc1)c1c(O)oc2ccccc2c1=O (stereo not shown),3.7%
16,CCc1ccccc1NC(=O)COc1ccc([N+](=O)[O-])cc1,-1.32%
17,COc1ccc(CCn2c(C)cc3c(c2=O)C(c2ccc4c(c2)OCO4)C(C#N)=C(N)O3)cc1OC (stereo not shown),-2.91%
18,S=c1n(CN2CCCCC2)c2ccccc2n1CN1CCCCC1,0.968%
19,CCOC(=O)c1c(NC(=O)COc2ccccc2Cl)sc(C(C)=O)c1C,-6.72%
20,C=CCN(CC=C)C(=O)c1nc2ccccc2s1,-0.469%
21,Cc1oc(-c2ccc(C(=O)NCc3ccccn3)cc2)nc1COc1ccccc1,-3.84%
22,C=CCN1C(=O)c2[nH]nc(-c3c(C)cc(C)cc3O)c2C1c1ccc(OCC)cc1 (stereo not shown),-5.33%
